Source: paper PMC12136788
The list shows a part of the results.

T1: UNK ZnF1-3 (human, UniProt Q9C0B0 31-174)
T1 sequence: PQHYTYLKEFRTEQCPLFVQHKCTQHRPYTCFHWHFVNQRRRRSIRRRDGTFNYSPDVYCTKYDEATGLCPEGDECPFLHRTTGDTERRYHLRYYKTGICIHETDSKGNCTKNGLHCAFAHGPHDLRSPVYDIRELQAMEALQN

B1: chr8:41682716:41682717:-_ENSMUSG00000039431_ENSMUST00000048898|mus_hu|FALSE|FALSE (ssRNA)
RNA: GGGAGUUCUACAGUCCGACGAUCCACAUCGCUGAGCUGCCAGUAAUGAUUAGGGAGGCCCAUCCGCGUGUAUUCUUCACUAAGAUCGAUCAGCACCCAGCCUUGCUCUCUUUCUUCUUUAUCCAGCAUGGGGUUGAAUGAAAACAACAGAGGAUUGAGCAUCA
B2: 113762500_113763388_1254_CDS_ENSMUSG00000033392_ENSMUST00000111838|mouse|control|control (ssRNA)
RNA: GGGAGUUCUACAGUCCGACGAUCAUGAGCCUUGGCACCAGCUGCCGCAUUCACAUCAAUGUCACUUCGAGAACGCUGCAGGCUUCCUGGAAGGGGGUUGGCUUUGCUGCCUCCCACAGAUACUCUUCCAGCUACAGUUGAAGGCAACAGAGGAUUGAGCAUCA
B3: 29488330_29488785_1031_CDS_ENSG00000153339_ENST00000582539|human|control|control (ssRNA)
RNA: GGGAGUUCUACAGUCCGACGAUCUUUUUUAGUUGCAGAAAAUAGAGAUCGACUCAAACCUUUUCUUGAUAUUAGCUGAUCGUUUAAUUGCCUAAUUGUUUUCUCUAUAUGUGGCAAAAGGCCCCGAAAUGUGAACUCUUGUAUCAACAGAGGAUUGAGCAUCA
B4: chr7:54823571:54823572:-_ENSG00000132432_ENST00000352861|hu_mus|hu_hu_hu_mus_False|58_108 (ssRNA)
RNA: GGGAGUUCUACAGUCCGACGAUCUCCCAUUAUAGCAAAUCCUAUAGCUGUAGCCAUGGCAAUCUUCUGGAAUUCUUUUCUAUCAGGUUUGGUGCAUCUUUUAACCAGCCGAAUUGAGUCCUUUACAAACUGCCGGCUGGGCUCCAACAGAGGAUUGAGCAUCA
B5: chr6:42301883:42301884:+_ENSMUSG00000029860_ENSMUST00000070635|mus_mus|motif|central (ssRNA)
RNA: GGGAGUUCUACAGUCCGACGAUCCUGUGGGUGCUGCUUCUCUUGAACUAGGGGCUUCUCCUUCUGCUGAGCAUAGGUGAAGCGGGGGGGCUGAGGGGAGCCUGUGCUCACAGAAGAAGGAGCAUCCGGAGGCACCAUUUUUUGCAACAGAGGAUUGAGCAUCA
B6: chrX:71549400:71549401:+_ENSMUSG00000019087_ENSMUST00000019231|mus_hu|mus_mus_mus_hu_False|88_88 (ssRNA)
RNA: GGGAGUUCUACAGUCCGACGAUCGCAGUAGGAAGAGGGAAGCUCUUCAUCCACUGUCGCUGCAGGGUGGGAAAGCAACAACACGGACACCGUCCCACCCUCAACCCCCCCACUGGCACAGGGUCACACAAUCUGGGUCAAAGACAACAGAGGAUUGAGCAUCA
B7: chr3:128198961:128198962:-_ENSG00000179348_ENST00000341105|hu_mus|FALSE|FALSE (ssRNA)
RNA: GGGAGUUCUACAGUCCGACGAUCUGACUGGACCCAAAAAACGAGUUUCAAAAUAAAACCACUCAUCAGCGGGUUAAGCUUAUGCAGUUUGGUUUUCGCUUUGAGUAUUUUCUUAUUUAUCUUAGAGGGGGAGGGGGCCGAGGGCAACAGAGGAUUGAGCAUCA
B8: chr9:122046315:122046316:+_ENSMUSG00000038145_ENSMUST00000120173|mus_mus|FALSE|FALSE (ssRNA)
RNA: GGGAGUUCUACAGUCCGACGAUCAAGUUUGGUCUGGGUGUCUAUGACUUCAUAGAGACGCACAAUGUUGGGGUGCUGCACUAGUUUCAUGCACCUCACUUCCUGGAAGAGAUGACCAGUGGCUAGAGUGUCCAGCUUCGUCUUCAACAGAGGAUUGAGCAUCA
B9: chr4:103717905:103717906:-_ENSG00000109332_ENST00000394803|hu_mus|FALSE|FALSE (ssRNA)
RNA: GGGAGUUCUACAGUCCGACGAUCUUCAGUGCUAUAUUAAACAGUAUUGGAAGAUAGAUUAACUAAUAGCUCCAAGCCUCCUAACAAUUUAAAUGAAAAUUACAAAAUGUUUUGAGACCCUAUUUUGGAAUACAAAGGGUGUUUCAACAGAGGAUUGAGCAUCA
B10: chr14:62205016:62205017:+_ENSG00000100644_ENST00000337138|hu_mus|FALSE|FALSE (ssRNA)
RNA: GGGAGUUCUACAGUCCGACGAUCCUGAUCUUGAAUCUGGGGCAUGGUAAAAGAAAGUCCCAGUGACUCUGGACUUGAUUCUAAUUUUAAUGCAACCUCUUGAUUCAGUGCAGGAUCAGCACUACUUCGAAGUGGCUUUGGAGUCAACAGAGGAUUGAGCAUCA
B11: chr2:48026839:48026840:+_ENSG00000116062_ENST00000540021|hu_hu|hu_hu_hu_mus_False|8_38 (ssRNA)
RNA: GGGAGUUCUACAGUCCGACGAUCAUAGUGAGCCACUAGCGUCCUAAAUCUGGAACAGUGGCGGUCAUCCGAAAACUGGCCGAUGAAAAACUUGCCCAGUGAAGUAUCCACAAAGCAAACACCAUACGCACGAGUAUGACCAGACAACAGAGGAUUGAGCAUCA
B12: chr1:163112212:163112213:-_ENSG00000143248_ENST00000313961|hu_hu|hu_hu_hu_mus_False|8_48 (ssRNA)
RNA: GGGAGUUCUACAGUCCGACGAUCUUUUAUUAUCAGUAAGAGUGAGUUACAUACUAGGCAAAGUAUUGGAUACAAUAAUCAGGAAACAAACACAAUUGGUCCAGAAUUUAAAACUUUAUGAGCGAAGGCUUACAAAUGGACUUACAACAGAGGAUUGAGCAUCA
B13: chr7:888068:888069:+_ENSG00000164828_ENST00000456758|hu_hu|FALSE|FALSE (ssRNA)
RNA: GGGAGUUCUACAGUCCGACGAUCUUGAACUAAAAAUGAUGAAAAAGAUGAUGCAGUGUAUCUGGCCAGCCACAAAAUCCUAUUCACGUAGAAAGACGCACCGCAUUUUUGAUUCCUGUCCCUAGAAUAAACUCUCGACACGGGCAACAGAGGAUUGAGCAUCA
B14: chr3:94683992:94683993:+_ENSMUSG00000038902_ENSMUST00000107270|mus_mus|motif|central (ssRNA)
RNA: GGGAGUUCUACAGUCCGACGAUCGUUAACGUUGCCAUCGGGACCUGGCAGAACACUAGCCACAAGGAAGGACCGCUGAACGGGCUCUGGGGAGUCCCCAAUGACACCCAGCACCUCUCCCAGCCAGACCAACACCAGCUGAAGCAACAGAGGAUUGAGCAUCA

Biological target: T1, UNK ZnF1-3
Test: nsRBNS (natural sequence RNA bind-n-seq); RBNS binding buffer (assumed for nsRBNS): 25 mM Tris pH 7.5, 150 mM KCl, 3 mM MgCl2, 0.01% Triton X-100, 500 ug/ml BSA, 20 U/ml SUPERase-In, 4 C; UNK is unkempt and MSI1 is Musashi-1; names of the RNAs are library labels; protein concentration not given here; high values mean tight binding

Binder	binding signal [enrichment R]
B1	1.12
B2	1.33
B3	0.737
B4	0.842
B5	1.09
B6	1.07
B7	1.99
B8	0.755
B9	1.12
B10	0.707
B11	1.1
B12	1.03
B13	1.11
B14	1.1
